In ChEMBL document CHEMBL4888484, “Replenishing the malaria drug discovery pipeline: Screening and hit evaluation of the MMV Hit Generation Library 1 (HGL1) against asexual blood stage Plasmodium falciparum ,using a nano luciferase reporter read-out” (2022):
Hit rate of the full screen: of about 150,000 compounds, about 540 (0.36%) showed an effect of 50% or more. The list shows a part of the results.

tested on: Plasmodium falciparum; assay: Primary screen in NF54 nanoGlo assay, in single point, at 2uM, 72h; a lower Z score goes with more inhibition; assay type: functional, Erythrocyte; conditions: timepoint 72 hour

Compound | % Inhibition | Z score
CN(C)C1(CNC(=O)CCc2cccc(F)c2F)CCOCC1 | 0% | -0.04
O=C(NCC(F)(F)F)c1nn(CC2CC2)c2c1COCC2 | -12% | 1.53
CCC(C)N1C(=O)C2C(CC(N)=O)NC3(C(=O)Nc4ccc(Br)cc43)C2C1=O (stereo not drawn) | 0% | 0.06
Cc1cnn(CCNC(=O)N2CCC([C@H](F)c3ccccc3F)CC2)c1 | -5% | 0.79
CC(O)CC(C)(C)CNC(=O)NC(C)c1nccs1 (stereo not drawn) | 2% | -0.3
CC1CN(Cc2ccc(Cl)cc2Br)CC[S+]([O-])C1 (stereo not drawn) | -4% | 0.56
Cc1cc(-c2nnc(NS(=O)(=O)c3cccnc3)o2)c(C)o1 | -10% | 1.59
CC(C)(C)OC(=O)NC1CCC2CN(Cc3ccco3)CC21 (stereo not drawn) | -6% | 1.01
CC[C@@H](C(N)=O)n1c(C)nnc1-c1cccc(C#N)c1 | -5% | 0.89
O=C(NC(c1ccccc1)c1ccccc1)[C@@H](c1ccc(Cl)cc1Cl)N1CCOCC1 | -35% | 4.08
CCOC(=O)Nc1nc2c(s1)CN(S(=O)(=O)c1ccccc1F)CC2 | -9% | 1.68
Cc1ccc(NC[C@H]2CCCN2)c(C)c1 | -5% | 0.59
Cc1cc(C)n(Cc2c(C(=O)NCc3ccco3)noc2C)n1 | -8% | 0.78
CC(C)(C)OC(=O)NC1CC2CCCC(C1)C2NCCn1ccnc1 (stereo not drawn) | -5% | 0.82
O=C(NC(c1ccccc1)c1ccccc1)c1ccccn1 | 4% | -0.79
Cc1nccn1[C@@H](C)C(=O)NCc1cccnc1N1CCN(C)CC1 | -7% | 1.38
Cc1ccc(C)c(-n2nc(CC(N)=O)nc2[C@H]2CCOC2)c1 | -14% | 2.02
COc1ccc(CC(=O)N2CCC3(CC2)Nc2ccccc2S(=O)(=O)N3)cc1 | -11% | 1.96
CCNC(=NCc1c(C)nn(C)c1OC)NCC | 0% | 0.05
CCO[C@H]1N(C)C(=O)C(C#N)=NN1c1ccc(C)cc1 | -10% | 1.5
COCC1(CNC(=O)c2c(C)ncnc2C)CCC1 | 1% | -0.09

Compound | % Inhibition | Z score
Cc1nc(CNS(=O)(=O)c2ccc(-c3cc(C(F)(F)F)[nH]n3)o2)no1 | -12% | 1.22
CCN(CCNC(=O)c1ncoc1-c1ccc2c(c1)OCCO2)C1CC1 | -13% | 1.65
Cc1c(C(=O)N(C)[C@H]2CCCc3c2cnn3C)cnn1C(C)C | -2% | 0.26
Cc1ccc(C)c(C(=O)N(C)CC(=O)NC(C)(C)C)c1 | 3% | -0.4
Cc1ccccc1NC(=O)C(C)(C)Br | 5% | -0.68
COc1ccc(NC(=O)CCc2[nH]c(C)c(C(=O)N(C)C)c2C)cc1 | -9% | 1.21
Cc1cccc(NC(=O)[C@H]2CCCN(c3nnc4ccc(C(F)(F)F)cn34)C2)c1 | -1% | 0.25
CCOc1ccc(NCCn2c(Nc3ccc(OCC)cc3)nc3c2c(=O)[nH]c(=O)n3C)cc1 | -4% | 0.56
N#Cc1cnn(-c2ccc(NC(=O)CCCc3ccccn3)cc2)c1N | -12% | 1.04
Cc1ccc(-n2nc(-c3ccccc3F)cc2C(=O)NC(c2ccccc2)c2ccccc2)cc1 | 0% | 0
CCOc1nc(N(C)CCn2cnnc2)ncc1Br | -2% | 0.3
NC(=O)c1cc(C2=CCCCC2)ccc1Cl | 4% | -0.46
COCCn1ccc(NC(=O)C(=O)NC[C@H](O)c2ccccc2C)n1 | -3% | 0.47
Cn1nncc1C1(O)CN(C(=O)CCCC2CC2)C1 | 2% | -0.28
COC(=O)CN(CC#N)Cc1nc(C(C)(C)C)cs1 | -5% | 0.48
O=C1N(Cc2cccc3ccccc23)c2ccccc2C1(c1ccc(O)cc1)c1ccc(O)cc1 | 1% | -0.13
Cc1noc([C@@H]2CCCN2S(=O)(=O)c2ccc3c(c2)CCCC3)n1 | -1% | 0.1
CCc1cc(CN(C)Cc2ccc(-n3ccnc3)cc2)on1 | -3% | 0.54
O=C(C1CCCC1)N(CCN1CCOCC1)CC(=O)N1N=C(c2ccc(F)cc2)C[C@H]1c1ccccc1F | -8% | 0.85
Cc1cccc(CCNC(=O)N[C@H]2CCCN(c3ccnn3C)C2)n1 | 1% | -0.05
CO[C@@H]1CCC[C@@H]2CN(C(=O)c3c[nH]c4ccccc34)C[C@@H]21 | 6% | -0.63

Compound | % Inhibition | Z score
CC(=O)Nc1ccc2c(c1)cc(C(=O)N1CCCC1)n2Cc1ccccc1 | -8% | 1.55
CC(=O)N1CCN(C(=O)c2csc3ccccc23)CCC12CCOCC2 | 4% | -0.66
CCN(CC)c1nc(C)cc(C(=O)NCc2ccc(F)cc2)n1 | -3% | 0.47
Cc1noc(C)c1C(=O)NCC1(C2CCC2)CCC1 | 5% | -0.62
CCN(C[C@H]1CCCO1)C(=O)CN(C)C(=O)c1cccs1 | -12% | 1.52
Fc1ccccc1COc1ccc2c(Cc3ccc(Cl)cc3)noc2c1 | -12% | 1.55
O=C(CC1CC2CCC1C2)N1CC(N2CCOCC2)C1 (stereo not drawn) | -7% | 0.88
CCCCN(Cc1ccco1)Cc1cnn(CCC)c1C | -6% | 0.94
Cn1cc(CN2CCC3(CCC(O)CC3)CC2)c(-c2cccs2)n1 | -3% | 0.52
O=C(Nc1cc[nH]n1)c1csc(-c2ccc(Cl)s2)n1 | -12% | 1.89
COCCn1cnnc1CNS(=O)(=O)c1cccc(C(=O)NC2CC2)c1 | -5% | 0.63
O=C(c1ccccc1)N1C[C@H]2CNC(=O)[C@]23CCCC[C@@H]13 | -11% | 1.8
C[C@H](NC(=O)CN1CCCCCC1)c1ccc(F)cc1 | -5% | 0.63
O=C(Nc1ccc(Cc2nnc3ccccn23)cc1)Nc1cccnc1 | -18% | 3.31
CCS(=O)(=O)c1cccc(CC(=O)N[C@@H](C)CC#N)c1 | -6% | 0.69
O=C(NC1CCCC1)[C@H]1CCc2ncc(-c3ccc(F)cc3)n2C1 | -8% | 1.45
Cc1cc(C(=O)NC[C@@]23CCCC=C2N(C)C(=O)CC3)nn1C | -13% | 1.83
CN(C)c1ccc(C(=O)N[C@H]2CO[C@H]3[C@@H]2OC[C@H]3OCc2ccccc2)cc1 | 2% | -0.29
C[C@@H](Cc1ccco1)NC(=O)NCCOc1ccc2c(c1)OCO2 | -12% | 2.19
Cc1nn(C)c(OC[C@H]2CCCCO2)c1C(=O)Nc1ccc2c(c1)C(=O)NC2 | -23% | 1.93
CN(Cc1ccsc1)C(=O)Cn1cnc(C#N)n1 | -1% | 0.13

Compound | % Inhibition | Z score
CC1CCCN(C(C)CS(=O)(=O)c2ccc3ccccc3c2)C1 (stereo not drawn) | -11% | 1.8
COCc1cc2nn(CC(=O)N(C)c3ccccc3)c(=O)n2c(-c2ccccc2)n1 | 2% | -0.33
COC(=O)c1cc(CN2CC(c3cc(C)ccc3C)OCC2C)c[nH]1 (stereo not drawn) | -16% | 2
CN(C)CCN1CC2(CCC1=O)CCN(C(=O)c1cccn1C1CC1)CC2 | -13% | 1.23
COc1cccc2c1CC[C@@H]2NS(=O)(=O)c1c(N)noc1C | 8% | -1.05
CC[C@]1(O)CCN(c2cc(OC)ncn2)C[C@@H]1O | -10% | 1.03
CCN(Cc1ncccc1C(=O)O)C[C@H]1COc2ccccc2O1 | 4% | -0.39
CCc1ccc([C@H](C)NC(=O)Cc2csc(COc3ccc(Cl)c(C)c3)n2)cc1 | -3% | 0.6
O=C(Nc1ccccc1C(=O)N1CCN(c2ccccc2F)CC1)c1ccco1 | -12% | 2.3
Cc1ccc(C(=O)N[C@@]2(CCO)CCOC2)nc1C | -1% | 0.07
CCCn1c(C)cnc1C1CN(S(=O)(=O)C(C)C)C1 | -9% | 1.16
COc1cc(-c2cccc(C(=O)NCCCn3ccnc3)c2)nc(OC)n1 | -3% | 0.37
O=C(c1ccccc1N1CCCC1)N1CCC[C@@](O)(CN2CCCC2)C1 | -6% | 1.23
C[C@@H](c1nnnn1C1CC1)S(=O)(=O)c1ccc2c(c1)CCC2 | -4% | 0.51
O=C(COC(=O)CC1CCCC1)Nc1nnc(-c2ccccc2)o1 | 3% | -0.45
Cc1ccc(CN2CCN(Cc3[nH]cnc3C)[C@H]3CS(=O)(=O)C[C@H]32)o1 | 0% | -0.03
COc1ccc(C(=O)N(Cc2cccc(C)c2)[C@@H]2CCCC[C@H]2NC(=O)[C@@H]2CCCN2C(=O)COc2ccc(Cl)cc2)cc1 | -6% | 0.57
O=S(=O)(Nc1ccccc1CC(c1c[nH]c2ccccc12)c1c[nH]c2ccccc12)c1ccc(Cl)cc1 | -11% | 1.84
O=C(CCCN1C(=O)[C@H](c2ccccc2)Oc2cccnc21)N1CCC(Cc2nncn2CC2CC2)CC1 | -7% | 1.24
Cc1cccnc1CNS(=O)(=O)CC12CCC(CC1)CC2 | -8% | 1.28
O=C1N[C@H]2C[C@@H](C(=O)NC[C@H]3O[C@H](CCOc4cc(C5CCCC5)ccc41)CC[C@@H]3O)N(CC1CC1)C2 | 6% | -0.72
